Experimental data published in patent publication US20060240417A1, “Agent controlling the apoptosis induction by p73” (Hisamitsu Pharmaceutical Co., Inc., priority 2002, published 2006).

System: SH-SY5Y cells
Test: MTT survival assay of cisplatin-treated cells
Details: cisplatin 0, 5, 10 and 25 μM, 24 hours

For `N.N.[Cl][Pt][Cl]` [cisplatin], the “surviving cell count by MTT assay” value was “reduction in surviving cells which was dependent on cisplatin dose”.
